PubChem BioAssay AID894 (National Center for Advancing Translational Sciences (NCATS), 2007)
Screen size: about 150,000 compounds; about 6,500 (4.3%) were called active. This list was built around the results that the source calls inconclusive (neither active nor inactive); the mix of calls is not that of the screen. The call rests on the fitted dose curve; in most records, active means well fitted inhibition curve with a large enough effect (not every such curve was filed as active); inconclusive means small, poorly fitted or top-dose-only effect, or another doubt; inactive means no such curve, though single readings can be large or run the other way. A potency beside an inconclusive call is a rough fit, not a confirmed value.

Target: 15-hydroxyprostaglandin dehydrogenase [NAD(+)] (Homo sapiens) (UniProt P15428)
Test: qHTS Assay for Inhibitors of HPGD (15-Hydroxyprostaglandin Dehydrogenase)
Settings: purified HPGD, NADH fluorescence kinetic, PGE2 substrate; activity change, negative = inhibition: hits give low values
In short: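 20 nM HPGD preincubated 15 min at room temperature with compound in 50 mM Tris-HCl pH 8, 0.01% Tween 20. Started with 1 mM NAD+ and 30 uM prostaglandin E2; NADH fluorescence (360/450 nm) read 5 times over 30-s intervals, last minus first.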
On the % scale 0 is the no-effect control and ±100 the full control effect; potency means the concentration at half of the fitted maximal effect; tags describe the fitted curve by direction and shape.

Chain of UniProt P15428 (P15428 whole entry, looked up): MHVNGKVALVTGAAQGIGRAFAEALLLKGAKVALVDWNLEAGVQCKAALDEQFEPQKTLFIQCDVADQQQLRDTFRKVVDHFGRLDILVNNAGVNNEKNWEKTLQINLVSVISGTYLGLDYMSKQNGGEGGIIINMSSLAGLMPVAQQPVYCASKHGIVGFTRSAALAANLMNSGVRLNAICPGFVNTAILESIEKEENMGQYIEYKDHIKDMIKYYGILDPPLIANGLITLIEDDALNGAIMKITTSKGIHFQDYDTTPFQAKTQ

Potency, inconclusive:
O=C(O)CCCNC(=O)c1cncc(O)c1 28.2 µM [inhibitor, partial curve], Cc1ccc2oc(-c3ccccc3)nc2c1 39.8 µM [inhibitor, single point], Cc1nc2ccccc2cc1O 28.2 µM [inhibitor, partial curve], N=C1S/C(=C\c2ccc(-c3cccc(Cl)c3)o2)C(=O)N1c1nccs1 0.794 µM [inhibitor, full curve], COc1ccc2c(-c3cccnc3)cc(=O)[nH]c2c1 28.2 µM [inhibitor, partial curve], O=C(Nc1cccc(NC(=O)c2ccc(-c3cccc(Br)c3)o2)c1)c1ccco1 35.5 µM [inhibitor, partial curve], Cn1cccc1C(=O)N1CCC2(CC1)CN(c1ccccn1)C2 39.8 µM [inhibitor, partial curve, poor fit], CN(C)c1ncc2nc(-c3ccc(Cl)cc3)c(=O)n(C3CC3)c2n1 31.6 µM [inhibitor, partial curve], COC(=O)c1ccc(Cl)c(-c2ccc(/C=N/NC(=O)Nc3ccccc3)o2)c1 15.8 µM [inhibitor, partial curve], CSc1ccccc1NC(=O)C1CC(c2ccccc2O)=NO1 (stereo unspecified) 31.6 µM [inhibitor, single point], Cc1cc(NC(=O)c2ccc(S(=O)(=O)N3CCCC3)cc2)nc2c1c(=O)oc1ccccc12 22.4 µM [inhibitor, partial curve], Cc1ccc(C(=O)c2cnc3cc4c(cc3c2S(=O)(=O)c2ccccc2)OCCO4)cc1 28.2 µM [inhibitor, partial curve], CCOC(=O)c1sc(NC(=O)c2ccc(S(=O)(=O)N3CCOCC3)cc2)nc1-c1ccccc1 31.6 µM [inhibitor, partial curve], COc1cc(OC)cc(OCC(O)Cn2ccnc2C)c1 (stereo unspecified) 6.31 µM [inhibitor, single point], CC(C)N1C(=O)CC2(CC[N+](C)(CCOC(=O)C(c3ccccc3)c3ccccc3)CC2)C1=O (stereo unspecified) 39.8 µM [inhibitor, single point], CCN(CC)c1ccc(/C=N/OCC(=O)Nc2cccc(C)c2)cc1 28.2 µM [inhibitor, partial curve], O=C(C1CCC(CNS(=O)(=O)c2cccc3cccnc23)CC1)N1CCc2ccccc21 (stereo unspecified) 28.2 µM [inhibitor, single point], O=C1/C(=C/c2ccco2)Oc2c1ccc(O)c2CN1CCCCC1 28.2 µM [inhibitor, single point], CCCOc1ccc2oc(=O)c3c(c2c1)CCCN3C(=O)CN1CCc2ccccc2C1 39.8 µM [inhibitor, single point], O=C(/C=C\NCC(=O)c1ccccc1)c1ccccc1 6.31 µM [inhibitor, partial curve], O=C(c1ccc2nc(N3CCOCC3)sc2c1)N1CCC(Cc2ccccc2)CC1 15.8 µM [inhibitor, partial curve], O=C(c1csnn1)N1CCC2(CC1)CN(c1ncccn1)C2 28.2 µM [inhibitor, partial curve], CC(C)Cc1cc(C(=O)Nc2c(F)cc(F)cc2Br)no1 14.1 µM [inhibitor, partial curve], O=C(CSc1nnc(Cn2c(=O)sc3ccccc32)n1-c1ccccc1)N1CCCCCC1 12.6 µM [inhibitor, partial curve], O=C(c1cc2c(s1)-c1ccccc1OC2)N1CCN(c2ccccc2)CC1 11.2 µM [inhibitor, partial curve], Cc1ccn2c(-c3n[nH]c(=S)n3C)c(C)nc2c1 28.2 µM [inhibitor, single point], CC1(C)CC(=O)C(C=Nc2ccccc2C(=O)O)=C(O)C1 28.2 µM [inhibitor, single point], CCCCc1nc(NCc2ccccc2)c(C#N)c2c1CCCC2 31.6 µM [inhibitor, partial curve], O=C1N=C(N2CCN(c3ccccc3)CC2)S/C1=C\c1cn[nH]c1-c1ccccc1 31.6 µM [inhibitor, single point], CC(Oc1ccc2oc(-c3ccccc3)c(C(=O)O)c2c1)C(=O)O (stereo unspecified) 28.2 µM [inhibitor, partial curve], c1ccc(-c2csc(-c3nc4ccccc4[nH]3)n2)cc1 14.1 µM [inhibitor, full curve], Cc1cc(C)n2nc(NCc3ccccc3)nc2n1 31.6 µM [inhibitor, partial curve], COc1ccc(-c2c3c(nc4sc5c(=O)[nH]c(C)nc5c24)CCC3)cc1 31.6 µM [inhibitor, partial curve], CN(C(=O)CSC1=Nc2ccccc2C2=NC(c3ccccc3)C(=O)N12)C1CCCCC1 (stereo unspecified) 31.6 µM [inhibitor, partial curve], CCN(CC)S(=O)(=O)c1ccc(N2CCCC2)c(C(=O)Nc2ccc(OC)c(Cl)c2)c1 39.8 µM [inhibitor, single point], CN(C)c1nc(N)c(C(=O)Nc2cccnc2)nc1Cl 28.2 µM [inhibitor, single point], NC(=NCc1ccc(Cl)c(Cl)c1)NC(=O)c1nc(Cl)c(N)nc1N 22.4 µM [inhibitor, partial curve], CCC(C)[C@H](N)c1nnc(SCC(=O)c2ccc(Cl)cc2)o1 (stereo partly specified) 28.2 µM [inhibitor, partial curve], COc1ccc(Oc2ncc3nc(-c4ccc(F)cc4)c(=O)n(C)c3n2)cc1 8.91 µM [inhibitor, partial curve], CCN(CCCNS(=O)(=O)c1ccc2c(c1)CCN2C(C)=O)c1cccc(C)c1 35.5 µM [inhibitor, partial curve], COc1ccc(-c2nn(C)c(=O)c3ccccc23)cc1CNS(C)(=O)=O 22.4 µM [inhibitor, single point], O=c1c2ccccc2nc2c3ccccc3c(NCCN3CCOCC3)nn12 31.6 µM [inhibitor, partial curve]

Potency, active:
Cc1oc(-c2cccc(Cl)c2)nc1CSc1nc2c(c(=O)[nH]1)CCC2 0.562 µM, COc1ccc(Nc2ncnc3c2cnn3Cc2ccccc2)cc1 22.4 µM, Cc1cc(Cl)ccc1OCCCC(=O)N1CCCCC1 6.31 µM, C=C1CSc2nc(=O)c3c4c(sc3n21)CCC4 14.1 µM, Cn1ncc(Br)c1C(=O)NCc1cccs1 15.8 µM, O=C(NCc1cccs1)c1nc2c(nnn2Cc2ccc(F)cc2)c(=O)[nH]1 14.1 µM, CCNC(=S)NNC(=S)NCc1ccccc1 28.2 µM, COC(=O)c1ccc(-c2ccc(/C=N/N3C(=O)C4C5C=CC(C6CC56)C4C3=O)o2)cc1 (stereo unspecified) 14.1 µM, COc1ccc(-c2c(C)nn(-c3ccccc3)c2N)cc1 20 µM

Activity change, negative = inhibition, inactive:
CCN(CC)C[C@@H](O)c1ccc2ccc3ccccc3c2c1 -1.32%, Cc1c(N2C(=O)/C(=C3/C(=O)N(C)c4ccccc43)SC2=S)c(=O)n(-c2ccccc2)n1C 6.69%, COc1ccc(/C=N/NC(=O)COc2ccccc2-c2ccccc2)cc1 -23.2%, Cn1nc(C(F)(F)F)c(/C=N/OC(=O)c2ccccc2Cl)c1SCc1ccccc1Cl -3.69%, Cc1ccccc1NC(c1cccc(Cl)c1)c1nnnn1C1CCCCC1 (stereo unspecified) -4.02%, CC(=O)c1cccc(NC(=O)Nc2ccc3c(c2)N(C)C(=O)CS3)c1 -3.65%, CN(C)c1nc(OCCNC(=O)COc2ccccc2Cl)nc(N(C)C)n1 -18.2%, COc1cc2nc(C3CCC3)nc(N3CCN(c4ccccn4)CC3)c2cc1OC -10.8%, Cc1ccn2c(C(=O)N/N=C\c3cccs3)c(C)nc2c1 -18.6%, Cn1c(=O)c2c(nc(SCCCC#N)n2Cc2ccccc2F)n(C)c1=O -7.1%, O=c1[nH]c(=O)n([C@@H]2O[C@H](CO)[C@@H](O)[C@H]2O)cc1F 1.04%, CC(=O)Nc1ccc(Nc2cc(C)nc3c(-c4ccccc4)c(C)nn23)cc1 -15.4%, O=C(CNS(=O)(=O)c1ccccc1)OCC(=O)c1ccc(OC(=O)c2ccccc2)cc1 -2.69%, Cc1ccc(-n2nc(C)c(NC(=O)CCl)c2C)cc1C -14.6%, O=C(CCN1CCc2ccccc21)c1ccc2c(c1)OCCO2 -9.65%, CCCCS(=O)(=O)/C=C\C1C2C=CC(C2)C1S(=O)(=O)CCCC (stereo unspecified) 0.909%, Nc1nonc1-c1noc(-c2ccccc2)n1 -8.1%, CCCCN(C)S(=O)(=O)c1ccc(C(=O)N=c2sc3cc(NC(C)=O)ccc3n2C)cc1 -26.1%, CCc1nc(SCC(=O)Nc2nc3c(s2)CCCC3)c2ccccc2n1 -8.87%, O=c1cc(CO)oc(C(Nc2ccccn2)c2ccc(F)cc2)c1O (stereo unspecified) -21.7%
